According to PubChem BioAssay AID504332 (National Center for Advancing Translational Sciences (NCATS), 2011):
Values joined by “and” are separate entries in the source; they are usually repeats but may differ in a detail not shown here. Identical values can stand only once. Hit rate of the full screen: of about 350,000 compounds, about 31,000 (8.9%) were called active. This list was built around the results that the source calls inconclusive (neither active nor inactive); the mix of calls is not that of the screen. The call rests on the fitted dose curve; in most records, active means well fitted inhibition curve with a large enough effect; inconclusive means small, poorly fitted or top-dose-only effect; inactive means no such curve, though single readings can be large or run the other way. A potency beside an inconclusive call is a rough fit, not a confirmed value.

Biological target: Histone-lysine N-methyltransferase EHMT2 (Homo sapiens) (UniProt Q96KQ7)
Assay: qHTS Assay for Inhibitors of Histone Lysine Methyltransferase G9a; further: nearly all actives have a fitted effect of over 75% in size
Details: G9a H3K9 monomethylation, AlphaScreen, 2 h; activity, negative = inhibition: at 59 µM (top of the series) unless noted
In short: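 Methyltransferase reactions run at room temperature for 2 h (20 nM enzyme, 500 nM biotin-H3K9 peptide, 20 uM SAM) after a 15 min compound preincubation; product detected by AlphaScreen beads and anti-H3K9me1 antibody.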
On the % scale 0 is the no-effect control and ±100 the full control effect; potency means the concentration at half of the fitted maximal effect; tags describe the fitted curve by direction and shape.

Chain of UniProt Q96KQ7 (Q96KQ7 whole entry, looked up): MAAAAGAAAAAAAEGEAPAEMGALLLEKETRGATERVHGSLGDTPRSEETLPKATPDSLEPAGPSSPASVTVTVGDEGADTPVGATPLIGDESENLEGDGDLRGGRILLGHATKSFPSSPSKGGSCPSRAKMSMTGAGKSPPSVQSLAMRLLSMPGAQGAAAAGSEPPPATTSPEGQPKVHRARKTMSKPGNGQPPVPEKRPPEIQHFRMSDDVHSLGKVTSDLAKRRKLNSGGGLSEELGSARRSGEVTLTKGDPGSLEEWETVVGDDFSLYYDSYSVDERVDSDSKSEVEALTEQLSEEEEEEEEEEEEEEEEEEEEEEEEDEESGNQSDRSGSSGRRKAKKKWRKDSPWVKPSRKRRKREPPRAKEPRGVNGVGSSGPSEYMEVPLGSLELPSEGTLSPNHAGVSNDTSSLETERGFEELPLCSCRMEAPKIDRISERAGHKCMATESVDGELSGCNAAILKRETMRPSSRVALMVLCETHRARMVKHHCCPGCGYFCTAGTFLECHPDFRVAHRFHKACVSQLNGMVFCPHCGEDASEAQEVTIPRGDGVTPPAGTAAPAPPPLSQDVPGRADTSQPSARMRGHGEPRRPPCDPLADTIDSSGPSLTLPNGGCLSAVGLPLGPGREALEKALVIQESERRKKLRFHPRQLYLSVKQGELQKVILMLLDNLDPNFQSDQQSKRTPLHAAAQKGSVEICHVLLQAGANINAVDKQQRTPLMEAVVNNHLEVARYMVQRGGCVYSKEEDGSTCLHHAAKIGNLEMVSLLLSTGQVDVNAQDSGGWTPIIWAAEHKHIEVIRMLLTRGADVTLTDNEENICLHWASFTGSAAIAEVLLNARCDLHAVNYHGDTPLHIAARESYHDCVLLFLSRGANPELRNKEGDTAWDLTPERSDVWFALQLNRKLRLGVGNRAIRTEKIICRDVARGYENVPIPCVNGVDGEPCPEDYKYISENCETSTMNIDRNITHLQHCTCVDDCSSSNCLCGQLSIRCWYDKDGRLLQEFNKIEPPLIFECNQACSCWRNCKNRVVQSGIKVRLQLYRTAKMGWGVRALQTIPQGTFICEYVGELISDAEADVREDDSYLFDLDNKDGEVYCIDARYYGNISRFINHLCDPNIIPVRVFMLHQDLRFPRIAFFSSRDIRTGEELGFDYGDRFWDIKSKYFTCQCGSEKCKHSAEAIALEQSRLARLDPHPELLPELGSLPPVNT

Compound	activity, negative = inhibition	Potency
CC(=O)O[C@H]1CC(=O)OC(C)(C)C2CC(=O)[C@]3(C)C(CC[C@@](C)([C@@H](O[C@@H]4O[C@H](CO)[C@@H](O)[C@H](O)[C@H]4O)c4ccoc4)[C@@]34O[C@@H]4C(=O)O)[C@]21C (stereo partly specified)	inactive: -34.3% [at 12.7 µM]	
CCCCNC(=O)Nc1ccccc1C(=O)NCc1ccco1		inconclusive: 89.1 µM [inhibitor, single point]
CN(CP(=O)(O)C(O)c1ccccc1)S(C)(=O)=O (stereo unspecified)		inconclusive: 31.6 µM [inhibitor, single point]
COc1ccc(-n2nc3c(N4CCCC(C(=O)NCCc5ccccc5C)C4)nnc(C)c3c2C)cc1 (stereo unspecified)		inconclusive: 5.01 µM [inhibitor, single point]
COCCn1c(C)cc(O)c(C(c2ccc(F)cc2)N2CCC(C)CC2)c1=O (stereo unspecified)		inconclusive: 35.5 µM [inhibitor, single point]
O=C(NCCN1CCOCC1)c1cc2cc([N+](=O)[O-])ccc2s1		inconclusive: 39.8 µM [inhibitor, single point]
CC1=NN(c2ccc(Cl)cc2)C(=O)C1		inactive
CCC/C=N/Nc1nnc(Cc2ccc(OC)c(OC)c2)c(=O)[nH]1		inconclusive: 0.891 µM [inhibitor, full curve, poor fit]
COc1ccc(-n2c(=O)c3ccc(C(=O)NCc4ccc(C)cc4)cc3n(Cc3ccc(Cl)cc3)c2=O)cc1		inactive
CC(C)c1ccc(NC2CCCN(C(=O)c3ccnn3C)C2)cc1 (stereo unspecified)		inconclusive: 79.4 µM [inhibitor, single point]
Cc1cccc(CSc2ncccc2C(=O)O)c1		active: 50.1 µM and active: 11.2 µM
Cc1cccnc1-n1c(CCN2C(=O)c3ccccc3C2=O)nc2ccccc2c1=O		inconclusive: 89.1 µM [inhibitor, single point]
COc1ccc(C(=O)N2CCN(Cc3ccc(OC)c(OC)c3)CC2)cc1		inconclusive: 31.6 µM [inhibitor, full curve, poor fit]
COc1ccc(NC(=O)C(CCSC)N2C(=O)c3ccccc3C2=O)cc1 (stereo unspecified)		inconclusive: 12.6 µM [inhibitor, partial curve, poor fit]
Cc1ccc(-c2cn(-c3ccccc3)c(SCC(N)=O)n2)cc1C		inconclusive: 20 µM [inhibitor, single point]
COC(=O)c1ccc(Oc2cc(C)nc(Cl)n2)cc1		inactive
CC1CCCN(c2ncnc3c2cnn3-c2ccc(Cl)cc2)C1 (stereo unspecified)	inactive: 36.6% [at 12.7 µM]	
CC1=C(C(=O)OC2CCCC2)C(c2ccccc2C(F)(F)F)CC(=O)N1 (stereo unspecified)		inactive
Cc1ccc(N(CC(=O)Nc2ccc(C)c(Cl)c2)S(=O)(=O)c2cccs2)cc1		inactive
CCCN(CCC)c1ccc(CC(=O)NC(C)Cc2ccccc2)cc1 (stereo unspecified)		active: 10 µM
O=C(O)CN1C(=O)C2C3CC(C2C1=O)C1C(c2ccccc2)c2sc(=O)[nH]c2SC31 (stereo unspecified)		inactive
O=C(N/N=C/C1CCCCC1)c1ccccc1-n1cccc1		inconclusive: 89.1 µM [inhibitor, partial curve, poor fit]
Cc1ccc(CNC(=O)CN2N=C(c3ccccc3)CCC2=O)cc1		inactive

Compound	activity, negative = inhibition	Potency
c1cncc(-c2nc(NCCCN3CCOCC3)c3c4c(sc3n2)CCC4)c1		inconclusive: 79.4 µM [inhibitor, single point]
COc1ccccc1N1CCN(CC(=O)N2N=CCC2c2ccccc2)CC1 (stereo unspecified)		inactive
COc1ccccc1CNC(=O)c1nnn(CC(=O)Nc2c(C)cccc2C)c1N		inactive
CC(=O)N(C)c1ccc(NC(=S)Nc2cccc3ccccc23)cc1		inconclusive: 31.6 µM [inhibitor, single point]
CSc1ccccc1NC(=O)CN(C)Cc1cccc(Cl)c1		inactive
CCOc1ccccc1NC(=O)c1c(NC(=O)Cc2ccc(OC)cc2)sc2c1CCC2		inactive
Cc1ccccc1NC1=C(Cl)C(=O)OC1OC(=O)c1ccco1 (stereo unspecified)		inconclusive: 89.1 µM [inhibitor, single point]
O=C(CNc1ccc(Br)cc1)c1ccccc1		inconclusive: 89.1 µM [inhibitor, single point]
COC(=O)c1sccc1-c1ccc(C(=O)Nc2ccccc2)o1		inconclusive: 89.1 µM [inhibitor, single point]
Nc1ccccc1NC(=O)c1ccccc1	inactive: 16.8% [at 2.33 µM]	
COc1ccc(C(=O)CSc2cc(C)[nH]c(=O)n2)cc1		inconclusive: 17.8 µM [inhibitor, single point]
NS(=O)(=O)c1ccc(Oc2ccc(S(N)(=O)=O)cc2)cc1		inactive
Cc1ccc(S(=O)(=O)N[C@@H](C)C(=O)OCC(=O)N2c3ccccc3NC(=O)C2(C)C)cc1		inconclusive: 3.16 µM [inhibitor, single point]
Cc1ccc(NC(=O)COc2ccc3oc4c(c3c2)CCCC4)cc1C		inconclusive: 2.82 µM [inhibitor, full curve, poor fit]
CCOc1ccc(NC(=O)N2CCC(N3CCCCC3)CC2)cc1		inactive
COc1cccc(Nc2nc(-c3sc(NC(=O)CC(C)C)nc3C)cs2)c1		inconclusive: 25.1 µM [inhibitor, single point]
CC(C)(C)OC(=O)N1CCC(CNC(=O)c2ccc(F)cc2)CC1		inactive
Cc1nc2ccc(S(=O)(=O)NCC(=O)Nc3cccc(F)c3)cc2s1		inconclusive: 89.1 µM [inhibitor, partial curve, poor fit]
N#Cc1c(NC(=S)NC(=O)C2CCCC2)sc2c1CCCCC2		active: 35.5 µM
COC(=O)C1CCN(c2csc3ccc(Cl)cc3c2=O)CC1		inactive
Cc1ccc2c(c1)cc(CN(Cc1ccco1)C(=O)N1CCOCC1)c1nnnn12		inconclusive: 79.4 µM [inhibitor, partial curve, poor fit]
COc1ccc(/C=C2\SC(=O)N(CC(=O)NN3CCN(C)CC3)C2=O)cc1OC		inconclusive: 89.1 µM [inhibitor, single point]
O=S(=O)(c1ccccc1)c1ccccc1/C=N\O		inconclusive: 89.1 µM [inhibitor, single point]
